# From PubChem BioAssay AID485344 (National Center for Advancing Translational Sciences (NCATS), 2010)
# About 6,900 (2%) of roughly 340,000 compounds were called active. Cut-off read from the data, not from the text of the source: active = inhibition above about 30%; inactive = below that, where a call was filed. This is a selection; strong and weak results do not stand in their true shares. Where no call is shown, the source filed none.
# Biological target: D(2) dopamine receptor (Homo sapiens) (UniProt P14416)
# Experiment: HTS Assay for Allosteric Antagonists of the Human D2 Dopamine Receptor: Primary Screen for Antagonists; note: 0% is about no effect
# Details: HEK293 TREx D2 cells, calcium flux, dopamine EC80; at 10 µM; stronger effect = higher value
# Method in brief: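 Antagonism is scored as inhibition of an EC80 dopamine-evoked calcium signal in a force-coupled, tetracycline-inducible HEK293 T-REx D2 line, with compound present 180 s before agonist.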
# Sequence of UniProt P14416 (P14416 whole entry, looked up): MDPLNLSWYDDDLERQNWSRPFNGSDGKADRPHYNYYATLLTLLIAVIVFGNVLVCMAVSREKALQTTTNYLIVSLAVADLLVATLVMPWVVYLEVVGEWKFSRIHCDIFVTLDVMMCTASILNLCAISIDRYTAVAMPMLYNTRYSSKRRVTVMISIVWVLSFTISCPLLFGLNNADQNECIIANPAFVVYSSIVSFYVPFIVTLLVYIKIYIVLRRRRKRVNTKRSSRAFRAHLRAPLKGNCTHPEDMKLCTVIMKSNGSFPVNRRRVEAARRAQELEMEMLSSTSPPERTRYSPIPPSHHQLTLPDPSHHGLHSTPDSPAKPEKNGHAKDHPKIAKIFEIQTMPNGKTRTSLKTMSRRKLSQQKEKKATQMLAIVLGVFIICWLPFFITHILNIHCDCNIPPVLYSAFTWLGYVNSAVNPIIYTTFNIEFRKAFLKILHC
row,SMILES,inhibition
1,Cc1ccc([N+](=O)[O-])cc1S(=O)(=O)N1CCn2cccc2C1c1ccccc1F (stereo not drawn),1.04%
2,CCOC(=O)c1c(C)c(-c2ccccc2)n(CC(=O)NCc2cccc(OC)c2)c1C,-7.28%
3,O=C(NCc1cccn1Cc1ccccc1)Nc1cccc(C(F)(F)F)c1,-7.9%
4,Cn1c(=O)oc2cc(S(=O)(=O)N3CCC(C(=O)NCc4ccccc4)CC3)ccc21,12.1%
5,CCOc1ccc(N2CC(NC(=O)c3ccc(S(=O)(=O)N4CCCC4)cc3)CC2=O)cc1 (stereo not drawn),4.45%
6,CCN(CC)S(=O)(=O)c1ccc2c(c1)nc(CN(C)C(=O)Nc1ccc(Cl)cc1)n2C,-24.4%
7,CCOC(=O)c1c(C)[nH]c(C)c1S(=O)(=O)NCC(=O)NCc1ccc(C)cc1,5.98%
8,COc1ccccc1CNC(=O)CCNS(=O)(=O)c1ccc2c(c1)CCCC(=O)N2,4%
9,O=C(NCc1cccn1Cc1ccccc1)Nc1ccc(Br)cc1F,-0.952%
10,COc1cccc(N2CCN(c3ncnc4c3c(-c3ccccc3)cn4-c3ccc(C)cc3)CC2)c1,-7.92%
11,CCCc1cc(=O)[nH]c2nnc(SCC(=O)Nc3ccc(OC)cc3)n12,10%
12,O=C(Nc1ccccc1C(=O)OCc1cc(=O)n2ccsc2n1)c1ccc(Cl)cc1,-12.7%
13,Cc1ccc(S(=O)(=O)c2nnn3c2nc(NC(C)c2ccccc2)c2sccc23)cc1 (stereo not drawn),-6.91%
14,COc1cc(C2SC[C@H]3C(=O)N(c4ccccc4)C(=O)N23)cc(OC)c1OC (stereo partly drawn),12.5%
15,COc1ccc(CNC(=O)C2CCCN(C(=O)N3CCOc4ccccc43)C2)cc1 (stereo not drawn),-23.9%
16,CCCN(CCC)S(=O)(=O)c1ccc2c(c1)N(CC(=O)NCc1ccc(F)cc1Cl)C(=O)CS2,-10.8%
17,O=C(CCCn1c(=O)c2ccccc2n(CC(=O)Nc2cccc(C(F)(F)F)c2)c1=O)NCc1ccc2c(c1)OCO2,8.75%
18,Cc1ccccc1-c1nc(CN2CCC(C(=O)NCCc3ccccc3)CC2)c(C)o1,14.3%
19,CC(C)(C)c1ccc(C(=O)N2CCC(c3nc(-c4ccc(S(=O)(=O)N5CCCC5)cc4)no3)CC2)cc1,5.19%
20,O=[N+]([O-])c1cccnc1N1CCN(Cc2ccc3c(c2)OCO3)CC1,active: 92.3%
21,CCOc1ccc(-c2cc3c(=O)n(Cc4nc(-c5ccc(OC(C)C)cc5)oc4C)ccn3n2)cc1Cl,-5.51%
22,CCCCN(CC)CCCNC(=O)Cn1ncc2c3ccccc3n(Cc3ccccc3F)c2c1=O,12.8%
23,Cc1ccc(-c2n[nH]c3c2C(c2cccc(O)c2)N(c2ccc(C(=O)O)cc2)C3=O)cc1 (stereo not drawn),5.56%
24,CCOc1ccc(N(CC)S(=O)(=O)N2CCCC(C(=O)Nc3cc(Cl)ccc3C)C2)cc1 (stereo not drawn),5.64%

row,SMILES,inhibition
1,COc1ccccc1CNc1nc2ccc(Cl)cc2n2cnnc12,-4.46%
2,O=C(c1noc2c1CCCCC2)N1CCN(c2cccc(C(F)(F)F)c2)CC1,16.3%
3,CC(=O)c1c(C)oc2c(Br)cc(NS(=O)(=O)c3ccc(Br)cc3)cc12,-15.7%
4,Cc1ccccc1OC(=O)CSc1nnc(-c2ccc3c(c2)OCO3)o1,15.2%
5,Cc1ccc(Cl)cc1N1CCN(C(=O)C2CCN(S(=O)(=O)c3cccc4nonc34)CC2)CC1,6.94%
6,CN1CCN(C(=O)Cn2c(-c3cccs3)cc3cc(Cl)ccc32)CC1,-0.946%
7,COC(=O)c1cc(NC(=O)c2nn(C)c3c2CSc2ccccc2-3)cc(C(=O)OC)c1,16.3%
8,Cc1cc2ccccc2n1CCNC(=O)c1cc(C(F)(F)F)cc(C(F)(F)F)c1,-18.6%
9,COCCn1c(SCC(=O)c2ccc(C)cc2C)nc2cc(C(=O)NC3CCCC3)ccc2c1=O,17.3%
10,Cn1nnc2c(N3CCN(c4ccccc4)CC3)ncnc21,-7.05%
11,CC(=O)Nc1ccc(NC(=O)CN2CCN(c3ccccn3)CC2)cc1,active: 84.2%
12,COc1cccc(NC(=O)C2CCC(CNS(=O)(=O)c3ccc4c(c3)CC(C)N4C(C)=O)CC2)c1 (stereo not drawn),25.4%
13,CCOC(=O)c1cc(S(=O)(=O)Nc2ccc(C)cc2Cl)[nH]n1,-28%
14,O=C(CSc1nccn1Cc1ccco1)Nc1ccc(F)cc1,-17.9%
15,COc1ccc(CNC(=O)CSc2nc3ccccc3nc2Cc2ccccc2)cc1,11.3%
16,Cn1c(CCN2CCN(c3ccccn3)CC2)nc2cc(NC(=O)COc3ccccc3)ccc21,active: 47%
17,CCOC(=O)c1[nH]c(C)c(CCC(=O)NCc2ccc(N(C)C)cc2)c1C,-4.76%
18,COc1ccc(Cn2c(CCC(=O)NCc3cccc(Cl)c3)nc3cccnc32)cc1,9.36%
19,COc1cccc(/C=C/c2nc(C#N)c(NCCN(C)C)o2)c1,1.92%
20,COc1ccc(S(=O)(=O)NCCc2cc3ccc(C)c(C)c3[nH]c2=O)cc1,-8.29%
21,Cn1c(=O)c2c(-c3ccc(Cl)cc3)n(Cc3ccccc3)cc2n(C)c1=O,-12.2%
22,Nc1cc(N)nc(SCCc2ccccc2)n1,active: 47.1%
23,O=C(O)Cn1nnc(-c2ccc(OCc3cccc(C(F)(F)F)c3)cc2)n1,-0.0041%
24,COc1ccc(Cl)cc1NS(=O)(=O)c1ccc2[nH]c3c(c2c1)CCCC3,-5.97%
